Measurements as given in PubChem BioAssay AID504706 (National Center for Advancing Translational Sciences (NCATS), 2011).
Screen size: about 320,000 compounds; about 200 (0.062%) were called active. Inconclusive results, whose numbers are uncertain, are shown with a selection of clear calls. Calls follow the shape of the dose curve; as a rule, active = well fitted activation curve with a large enough effect; inconclusive = small, poorly fitted or top-dose-only effect; inactive = no such curve, though single readings can be large or run the other way. No potency is given beside an inconclusive call; the fits are too rough.

Experiment: qHTS assay for re-activators of p53 using a Luc reporter; also: nearly all actives have a fitted effect of over 45% in size; as to activity change, positive = activation: % of control where 0% means no effect
Conditions: H1299 p53-A138V BP100-luciferase reporter, luminescence, 24 h; series mostly up to 92.2 µM; activity change, positive = activation: at the top concentration
Outline: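 H1299 (p53-null), stable ts p53-A138V + BP100-Luc; 1000 cells/well, Opti-MEM/10% FBS; cpd 4 pt, 1:5; 24 h, 37 deg C, 5% CO2; detection reagent 10 min RT; luminescence.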
Potency is read from the fitted curve at half-maximal effect; tags tell the direction and shape of the fitted curve.

SMILES | Potency | activity change, positive = activation
O=S(=O)(/N=C(/Nc1cc(N2CCOCC2)ncn1)c1ccccc1)c1ccccc1 | inconclusive [activator, partial curve, poor fit] | –
COc1cc(NC(=S)NCCCO)c(OC)cc1Cl | – | inactive: -2.84%
CCN=c1scc(-c2ccco2)n1/N=C/c1ccc(O)cc1 | – | inactive: 11%
C=CCN1CCN(C(=O)c2oc3ccccc3c2C)CC1 | inconclusive [activator, single point] | –
O=C(OC(C(=O)NC1CCCC1)c1ccccn1)c1cccs1 (configuration not stated) | – | inactive: -2.65%
CCOC(=O)N1CCN(C(=O)C2CCN(S(=O)(=O)c3ccc(NC(C)=O)cc3)CC2)CC1 | inconclusive [activator, single point] | –
O=C(O)C1CCCCC1C(=O)NC1C2CC3CC(C2)CC1C3 (configuration not stated) | inconclusive [activator, single point] | –
CCCOc1ccc(C(=O)CCC(=O)OCC(=O)N2CC(=O)Nc3ccccc32)cc1 | – | inactive: 6.43%
CCN(CC(=O)Nc1ccccc1C(F)(F)F)C(=O)c1oc2ccc(OC)cc2c1C | – | inactive: 9.69%
Nc1cccc2c1C(=O)N(CCOc1ccccc1F)C2=O | inconclusive [activator, partial curve, poor fit] | –
CCOc1ccc(NC(=O)CCCc2cc(-c3ccc(OCC)cc3)on2)cc1 | – | inactive: -5.84%
O=C(Nc1ccc(F)cc1F)c1ccc2c(=O)n3c(nc2c1)CCC3 | inconclusive [activator, full curve, poor fit] | –
CCn1c(COc2ccccc2C)nc2ccccc21 | inconclusive [activator, full curve, poor fit] | –
Oc1c(CN2CCOCC2)cc(COCc2ccccc2)c2cccnc12 | inconclusive [activator, full curve, poor fit] | –
COc1ccc(NS(=O)(=O)c2cc(NC(=O)c3ccco3)ccc2N2CCCCC2)cc1 | – | inactive: -0.924%
CCc1ccc(NC(=S)N2CCCC2)cc1 | inconclusive [activator, partial curve, poor fit] | –
CO/N=C(/C(=O)N[C@@H]1C(=O)N2C(C(=O)O)=CCS[C@H]12)c1cnc(N)s1 | – | inactive: 9.68%
O=C(/C=C/Nc1cccc(O)c1)c1ccccc1 | inconclusive [activator, partial curve, poor fit] | –
Cc1cccc2nc(CSCc3ccco3)cn12 | inconclusive [activator, partial curve, poor fit] | –
C/C(Cn1cnc([N+](=O)[O-])n1)=N\NC(=O)c1ccccc1 | inconclusive [activator, partial curve, poor fit] | –
O=C(Nc1ccc(NC(=O)c2ccco2)cc1)c1ccc2c(c1)OCO2 | – | inactive: 5.6%
Cc1csc(NC(=O)c2cc3c(s2)-c2ccccc2OC3)n1 | inconclusive [activator, partial curve, poor fit] | –
Cc1nn(Cc2ccccc2)c(Cl)c1C(=O)NCCc1ccccc1 | inconclusive [activator, full curve, poor fit] | –

SMILES | Potency | activity change, positive = activation
COc1ccc(COC(=O)C2CCN(S(=O)(=O)c3ccc(OC)c(OC)c3)CC2)cc1 | – | inactive: -2.88%
CN1CCN(c2ccc(NC(=O)c3cccc(OCc4ccccc4)c3)cc2)CC1 | inconclusive [activator, partial curve, poor fit] | –
Cc1ccc(S(=O)(=O)NCc2ccc(C(=O)N3CCN(c4ccccc4)CC3)cc2)cc1 | – | inactive: 8.43%
c1ccc2[nH]c(-c3nc4ccccc4[nH]3)nc2c1 | inconclusive [activator, full curve, poor fit] | –
Cc1ccc(N=c2oc3cc(O)ccc3cc2C(N)=O)cc1 | inconclusive [activator, partial curve, poor fit] | –
Cc1cccc(CSc2cn(CC(=O)N3CCOCC3)c3ccccc23)c1 | inconclusive [activator, partial curve, poor fit] | –
CCCn1nnc(NC(=S)NC(=O)c2cccs2)n1 | inconclusive [activator, partial curve, poor fit] | –
CN1CCN(c2ccc(NC(=O)c3ccc(-c4ccccc4F)o3)cc2)CC1 | inconclusive [activator, partial curve, poor fit] | –
CSc1ccccc1C(=O)Nc1ccc2c(c1)CCC2 | inconclusive [activator, full curve, poor fit] | –
COC(=O)C(NC(=O)CCc1nnc2ccc(N3CCCCC3)nn12)C(C)C (configuration not stated) | inconclusive [activator, partial curve, poor fit] | –
Cn1c(=O)n(CCOc2ccccc2Cl)c2ccccc21 | inconclusive [activator, partial curve, poor fit] | –
COC(=O)C1CCN(C(=O)COC(=O)c2n[nH]c3ccccc23)CC1 | inconclusive [activator, partial curve, poor fit] | –
O=C(Nc1ccc2c(c1)CCC2)Nc1ccccc1Cl | inconclusive [activator, partial curve, poor fit] | –
C/C(CC(=O)N1CCN(C=O)CC1)=N\NC(=O)c1ccc(Cl)cc1 | – | inactive: 0.0226%
CC(=O)NC(=S)Nc1ccc(-c2nc3ccc(C)cc3s2)cc1 | inconclusive [activator, full curve, poor fit] | –
O=C(N/N=C/c1ccc(OC2CSC2)cc1)c1ccccc1 | inconclusive [activator, partial curve, poor fit] | –
CC(C)(C)NC(=O)C(c1ccc(F)cc1)N(Cc1ccccc1Cl)C(=O)c1ccn[nH]1 (configuration not stated) | – | inactive: -7.57%
NNC(=O)c1cccc(O)c1 | inconclusive [activator, partial curve, poor fit] | –
Cc1cccc(Cc2nnc(CCC(=O)N(C)C3CCOC3)o2)c1 (configuration not stated) | – | inactive: 9.41%
COc1ccc(N=Nc2cc(C)ccc2O)cc1 | inconclusive [activator, full curve, poor fit] | –
CN(CC(=O)NCC(=O)Nc1ccc(F)cc1)C1CCS(=O)(=O)C1 (configuration not stated) | – | inactive: -2.88%
O=C(Nc1ccc2c(c1)OCO2)c1ccc(COc2ccc3c(c2)CCC3)o1 | inconclusive [activator, single point] | –
Clc1ccccc1Nc1nc2ccccc2o1 | inconclusive [activator, full curve, poor fit] | –

SMILES | Potency | activity change, positive = activation
Cc1cc(C(=O)COC(=O)c2ccc[nH]c2=O)c(C)n1C | inconclusive [activator, partial curve, poor fit] | –
c1ccc(-c2noc(CSc3nc4ccccc4o3)n2)cc1 | inconclusive [activator, single point] | –
COc1ccc(/C=C2/C(=O)N(c3nc4ccccc4s3)N=C2CSc2ccc(Cl)cc2)cc1 | inconclusive [activator, full curve, poor fit] | –
CN1CCN(C(=O)CCCN2C(=O)/C(=C/c3ccc(Cl)cc3)SC2=S)CC1 | inconclusive [activator, partial curve, poor fit] | –
O=C(Cc1c[nH]c2ccccc12)NCc1cccs1 | inconclusive [activator, single point] | –
COC(=O)c1ccc(COn2c(=O)c(C)[n+]([O-])c3ccccc32)cc1 | inconclusive [activator, full curve, poor fit] | –
Clc1ccc(C2=CSC3=Nc4cccc5cccc(c45)N23)cc1 | inconclusive [activator, partial curve, poor fit] | –
O=[N+]([O-])c1ccc(/C=C/c2ccncc2)cc1 | – | inactive: 4.06%
CCOC(=O)N1CCC(NC(=O)c2ccc3c(c2)sc2nc(-c4cccc(OC)c4)cn23)CC1 | inconclusive [activator, single point] | –
CCc1ccc(-n2nnnc2SCC(=O)Nc2ccc(NC(C)=O)cc2)cc1 | inconclusive [activator, single point] | –
Cc1sc2ncnc(N(C)CCc3ccccn3)c2c1C | – | inactive: 3.29%
Cc1ccccc1N1CCN(C2=NC(=O)/C(=C\c3cccs3)S2)CC1 | inconclusive [activator, partial curve, poor fit] | –
COC(=O)c1ccc(CSc2ncnc3c2nnn3-c2ccc(F)cc2)o1 | inconclusive [activator, partial curve, poor fit] | –
CN1CCN(c2ccc(NC(=O)c3ccco3)cc2Cl)CC1 | inconclusive [activator, partial curve, poor fit] | –
COc1ccccc1NC(=O)CSc1nc2sc3c(c2c(=O)n1-c1ccccc1)CCN(C)C3 | inconclusive [activator, partial curve, poor fit] | –
O=C(CSc1nnc(SCc2cccc3ccccc23)s1)N=Nc1c(O)[nH]c2ccccc12 | inconclusive [activator, partial curve, poor fit] | –
O=C(CCC(=O)c1ccc(Br)cc1)Nc1cccc(C(F)(F)F)c1 | – | inactive: -2.17%
Cc1nnc(NC(=O)CSc2nc(C(C)C)nc3sc(C)c(C)c23)s1 | – | inactive: 9.37%
Cc1cccc(NC(=O)CSc2n[nH]c(-c3ccncc3)n2)c1 | – | inactive: -1.78%
O=C(NCCC1=CCCCC1)c1ccc(F)c(S(=O)(=O)N2CCOCC2)c1 | inconclusive [activator, partial curve, poor fit] | –
Cc1nn(C)c(Sc2ccccc2N)c1[N+](=O)[O-] | inconclusive [activator, full curve] | –
